Measured values published in PubChem BioAssay AID504466 (National Center for Advancing Translational Sciences (NCATS), 2011).
The whole screen tested about 330,000 compounds, of which about 4,200 (1.3%) were called active. This list was built around the results that the source calls inconclusive (neither active nor inactive); the mix of calls is not that of the screen. Calls follow the shape of the dose curve; as a rule, active = well fitted activation curve with a large enough effect; inconclusive = small, poorly fitted or top-dose-only effect; inactive = no such curve, though single readings can be large or run the other way. Where the call is inconclusive, the potency comes from a doubtful curve fit.

Assay: qHTS screen for small molecules that induce genotoxicity in human embryonic kidney (HEK293T) cells expressing luciferase-tagged ELG1; also: nearly all actives have a fitted effect of over 60% in size; as to activity change, positive = activation: % of control where 0% means no effect
Details: HEK293T ELG1-luciferase reporter, luminescence, 16 h; series mostly up to 46 µM; activity change, positive = activation: at the top concentration
Procedure, shortened: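 Luminescence read-out: rising ELG1-luciferase signal, reflecting elevated ELG1 protein under genetic stress, flags genotoxic compounds. Cells were treated for 16 hr at 37 °C before ONE-Glo detection.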
Potency is read from the fitted curve at half-maximal effect; tags tell the direction and shape of the fitted curve.

Compound | Potency | activity change, positive = activation
CCCCCN=Cc1c(C)[nH]n(-c2nc3ccccc3s2)c1=O | active: 2.91 µM | 
Cc1ccc(/C=N/N=C2/NC(=O)C(CC(=O)Nc3ccc(Cl)cc3)S2)o1 (centres undefined) |  | inactive: 2.88%
O=C(Oc1ccccc1/C=C\C(=O)c1cc2ccccc2o1)c1ccccc1 | inconclusive: 20.6 µM [activator, single point] | 
Cc1ccccc1Nc1nc(-c2cccnc2)cs1 | inconclusive: 2.59 µM [activator, full curve, poor fit] | 
Cc1c(C(=O)NCCN2CCOC2=O)oc2c(F)cccc12 | inconclusive: 29.1 µM [activator, partial curve, poor fit] | 
O=C(CSc1nnc(NC(=O)c2ccc(F)cc2F)s1)NC1CCCC1 | inconclusive: 13 µM [activator, partial curve, poor fit] | 
O=C1NN(c2cccc(Br)c2)C(=O)/C1=C\c1ccc(O)cc1 |  | inactive: -0.129%
CCN1C(=O)N(CC)C2C1N(CO)C(=O)N2CO (centres undefined) |  | inactive: -5.6%
O=C(c1noc2c1CCc1ccccc1-2)N1CCOCC1 | inconclusive: 13 µM [activator, partial curve, poor fit] | 
CCCCn1c(N)c(N(CC(C)C)C(=O)c2ccc(-n3c(C)ccc3C)cc2)c(=O)[nH]c1=O | inconclusive: 18.3 µM [activator, single point] | 
OCCCN1c2ccccc2Nc2nnc(-c3ccccc3)cc21 | inconclusive: 2.59 µM [activator, full curve, poor fit] | 
COc1cc(-c2[nH]ncc2CN2CCSCC2)cc(OC)c1OC | active: 18.3 µM | 
O=C(N/N=C/c1c(F)cccc1Cl)C1CC1 |  | inactive: 0.11%
O=C(CCSc1nc2ccccc2o1)N1CCOCC1 |  | inactive: 11.3%
C=CCNC(=O)c1cc(-c2ccc(Br)cc2)on1 | inconclusive: 4.61 µM [activator, full curve] | 
COc1ccc(-c2c(C)c3ccc(OCC(C)=O)cc3oc2=O)cc1 |  | inactive: -5.71%
O=C(COc1ccccc1Br)NC1CC1 | inconclusive: 23.1 µM [activator, partial curve, poor fit] | 
O=C(Nc1ccc2c(c1)OCCO2)c1ccc2nccnc2c1 | inconclusive: 2.06 µM [activator, partial curve] | 
CCN(CC)S(=O)(=O)c1cccc(C(=O)N/N=C/c2cccc(O)c2O)c1 | inconclusive: 16.4 µM [activator, partial curve, poor fit] | 
Cc1ccc(C)c(NC(=O)CSc2n[nH]c(-c3ccccn3)n2)c1 | inconclusive: 29.1 µM [activator, single point] | 
CCOc1ccc2oc(C(=O)N(Cc3nnc(-c4ccccc4Cl)o3)C3CC3)c(C)c2c1 | inconclusive: 29.1 µM [activator, single point] | 
Brc1ccccc1-c1nc(-c2ccccc2)no1 | inconclusive: 1.12 µM [activator, partial curve, poor fit] | 
Cc1nc(NC(C)C)c2cnn(CCc3ccccc3)c2n1 | active: 14.6 µM | 
CN1C(=O)/C(=C2\SC(N3CCCCCC3)=NC2=O)c2ccccc21 | inconclusive: 10.3 µM [activator, partial curve, poor fit] | 
COc1cccc(NC(=O)/C=C/c2ccco2)c1 | inconclusive: 7.3 µM [activator, partial curve] | 

Compound | Potency | activity change, positive = activation
CC(=O)Nc1ccc(NC(=O)CSc2nnnn2-c2ccc3c(c2)OCCO3)cc1 | inconclusive: 29.1 µM [activator, partial curve, poor fit] | 
COc1ccc(C(=O)Nc2cc(Cl)ccc2OC(=O)c2ccc(OC)cc2)cc1 | inconclusive: 16.4 µM [activator, partial curve, poor fit] | 
CC(=O)c1cccc(NC(=O)COC(=O)c2ccccc2C)c1 | inconclusive: 10.3 µM [activator, partial curve, poor fit] | 
COc1ccc(C(=O)Cc2nnc(C)s2)c(OC)c1 | inconclusive: 14.6 µM [activator, partial curve, poor fit] | 
C[C@@H]1CN([C@@H](C)CO)C(=O)c2cccc(NC(=O)Nc3ccc4c(c3)OCO4)c2O[C@H]1CN(C)S(=O)(=O)c1cn(C)cn1 |  | inactive: -4.06%
CCc1nnc(NC(=O)CSc2nc(C)cc(C)c2C#N)s1 | inconclusive: 2.59 µM [activator, partial curve] | 
Cc1ccc(C(C(=O)NCC2CCCO2)N(C(=O)c2snc(C(N)=O)c2N)c2ccc(F)cc2)o1 (centres undefined) |  | inactive: -13.4%
Cc1nn(C)c(C)c1CNC(=O)Nc1ccc(Cl)cc1 | inconclusive: 14.6 µM [activator, partial curve, poor fit] | 
O=C(NCC(O)c1ccccc1)c1ccccc1 (centres undefined) | inconclusive: 6.51 µM [activator, partial curve, poor fit] | 
CCCn1cnc2cc(NC(=O)c3ccco3)ccc21 | active: 2.91 µM | 
Cn1nc(C(=O)Nc2ccc3c(c2)OCCO3)c2ccccc2c1=O | inconclusive: 20.6 µM [activator, single point] | 
COc1ccc(CNC(=O)c2noc3c2CCCC3)cc1 | inconclusive: 18.4 µM [activator, partial curve, poor fit] | 
Cc1cccc(NC(=O)Nc2cnccn2)c1C |  | inactive: -1.73%
Cc1ccc(C(=O)Nc2sc(C)c(-c3ccccc3)c2C(N)=O)cc1[N+](=O)[O-] | active: 2.91 µM | 
COc1ccc(-c2c(C)nc3c(-c4ccccn4)cnn3c2N)cc1 | active: 1.16 µM | 
CCOc1cc(CNc2ccc3c(c2)CCC3)ccc1O | inconclusive: 25.9 µM [activator, partial curve, poor fit] | 
COc1cc(NC(C(=O)Nc2cccc(C(C)=O)c2)c2ccccc2)cc(OC)c1OC (centres undefined) | inconclusive: 16.4 µM [activator, partial curve] | 
CCOc1ccc(-c2nnc(SCC(=O)N3CCCC3)o2)cc1 | inconclusive: 16.4 µM [activator, partial curve, poor fit] | 
CC[C@]12c3[nH]c4cc(CCC(=O)N(C)C)ccc4c3CCN1C(=O)[C@@H](CC(=O)NCc1cccc(C(F)(F)F)c1)C[C@@H]2C(=O)N1CCN(C(=O)c2ccco2)CC1 | inconclusive: 29.1 µM [activator, single point] | 
Cc1ccc(CSc2nc3nc(C)cc(C)n3n2)cc1 | inconclusive: 18.3 µM [activator, partial curve, poor fit] | 
COCCNC(=O)c1onc(CCl)c1C(=O)OC |  | inactive: 2.34%
Cc1ccc(N(C(=O)c2csnn2)C(C(=O)NC2CCCCC2)c2cccnc2)c(C)c1 (centres undefined) |  | inactive: 5.57%
CCc1ccccc1NC(=O)CNCC(=O)Nc1ccccc1CC |  | inactive: -0.72%
O=C(CSC1=NC(=O)C(Cc2ccccc2)C(=O)N1)Nc1ncc(Br)cc1Br (centres undefined) | inconclusive: 0.103 µM [activator, full curve, poor fit] | 
O=C(Nc1nc2c(s1)CCCC2=O)c1cnccn1 | active: 23.1 µM | 

Compound | Potency | activity change, positive = activation
CC(=O)C1=C(C)NC(=S)NC1c1cc([N+](=O)[O-])ccc1O (centres undefined) |  | inactive: -2.25%
COc1ccc(-c2cc(=O)oc3cc(OCC(=O)N(C)C)ccc23)cc1 |  | inactive: 1.63%
Cc1ccoc1C(=O)Nc1cccc(Oc2ccccc2)c1 | active: 9.2 µM | 
COc1ccc(CC(=O)NCC2CCCN(Cc3ccc(SC)cc3)C2)cc1 (centres undefined) |  | inactive: -3.82%
CCCCc1ccc(NS(=O)(=O)c2cccs2)cc1 |  | inactive: -1.34%
c1ccc2sc(-c3ccncc3)nc2c1 | inconclusive: 20.6 µM [activator, partial curve, poor fit] | 
Cc1ccccc1NC(=O)Cc1c(O)c2ccccc2[nH]c1=O |  | inactive: 1.84%
CCOC(=O)/C(C#N)=C1/C=CN(Cc2ccccc2)C=N1 | inconclusive: 13 µM [activator, partial curve, poor fit] | 
CC(C)Cc1cc(C(=O)NCc2cccs2)no1 | active: 16.4 µM | 
Cc1ccc(NC(=O)CN2C(=O)N/C(=C/c3ccccc3OCc3cccc(C(=O)O)c3)C2=O)cc1 | inconclusive: 23.1 µM [activator, partial curve, poor fit] | 
Cc1cc[n+](C2=C([O-])c3ccccc3C(=O)/C2=N\S(=O)(=O)c2cccs2)cc1C |  | inactive: -14.8%
CN(C)c1ccc(NC2=C(Cl)C(=O)c3ccccc3C2=O)cc1 | inconclusive: 2.31 µM [activator, partial curve] | 
COc1ccccc1Nc1ccc(Nc2ccccc2OC)nn1 | inconclusive: 14.6 µM [activator, partial curve] | 
CC(=O)Nc1ccc(S(=O)(=O)N(C)CC(=O)N(C)Cc2sccc2C)cc1 |  | inactive: 1.14%
CC(C)c1ccc(-c2nnn(CC(=O)N3CCCCC3)n2)cc1 |  | inactive: 3.84%
COc1ccccc1C(=O)Nc1cccc(NC(=O)c2ccccc2C)c1 |  | inactive: -7.93%
COCc1nc2oc3ccc(C)cc3c(=O)c2cc1C(=O)OC | inconclusive: 13 µM [activator, partial curve] | 
COc1cc(SC)ccc1C(=O)Nc1cc(C)c(OCC(=O)N2CCOCC2)c(C)c1 |  | inactive: -4.69%
COC(=O)c1ccc2nc(NC(=O)C(C)(C)C)sc2c1 | inconclusive: 0.651 µM [activator, partial curve, poor fit] | 
CSCCOC(=O)c1[nH]c2c(c1C)C(=O)CC(c1ccco1)C2 (centres undefined) |  | inactive: 1.22%
CCC(=O)N(Cc1cc2ccccc2[nH]c1=O)C(C)C | active: 23.1 µM | 
Cc1ccc(-c2nnc(-c3ccccc3)o2)cc1 | inconclusive: 2.06 µM [activator, full curve] | 
[O-][n+]1c(/C=C/c2ccccc2)ccc2ccccc21 | active: 6.51 µM | 
Cc1ccc(NC(=O)/C=C/c2ccc(Cl)cc2)nc1 |  | inactive: 6.33%
